# Laboratory results: the supplement of paper PMC8728848
# Some of the results follow.
# B1: Gal 4 (Mus musculus), P56470 (protein)
# chain: MAYVPAPGYQPTYNPTLPYYQPIPGGLNVGMSVYIQGVASEHMKRFFVNFVVGQDPGSDVAFHFNPRFDGWDKVVFNTLQGGKWGSEERKRSMPFKKGAAFELVFIVLAEHYKVVVNGNPFYEYGHRLPLQMVTHLQVDGDLQLQSINFIGGQPLRPQGPPMMPPYPGPGHCHQQLNSLPTMEGPPTFNPPVPYFGRLQGGLTARRTIIIKGYVPPTGKSFAINFKVGSSGDIALHINPRMGNGTVVRNSLLNGSWGSEEKKITHNPFGPGQFFDLSIRCGLDRFKVYANGQHLFDFAHRLSAFQRVDTLEIQGDVTLSYVQI
# Legend:
# Experiment in all cases: glycan array binding signal (z-score within array); higher = stronger binding
# Conditions in all cases: glycan notation: IUPAC condensed, linker removed
# [1] = target: Fuc(a1-3)[Gal(b1-4)]GlcNAc(b1-2)Man
# Procedure, shortened: (§1)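 Glycan array binding is given as a within-array Z-score, which can be read as non-binding when negative. The arrays, 3228 of them, came from the Consortium for Functional Glycomics database and were retained only where the protein sequence was available. Z-scores were averaged across arrays of the same protein sequence at different concentrations or buffers and across linkers.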
# [2] = target: Fuc(a1-3)[Gal(b1-4)]GlcNAc(b1-2)Man(a1-3)[Fuc(a1-3)[Gal(b1-4)]GlcNAc(b1-2)Man(a1-6)]Man(b1-4)GlcNAc(b1-4)GlcNAc
# Procedure, shortened: as §1
# [3] = target: Fuc(a1-3)[Gal(b1-4)]GlcNAc(b1-2)Man(a1-3)[Fuc(a1-3)[Gal(b1-4)]GlcNAc(b1-2)Man(a1-6)]Man(b1-4)GlcNAc(b1-4)[Fuc(a1-6)]GlcNAc
# Procedure, shortened: as §1
# [4] = target: Fuc(a1-3)[Gal(b1-4)]GlcNAc(b1-3)Gal(b1-3)[Fuc(a1-4)]GlcNAc
# Procedure, shortened: as §1
# [5] = target: Fuc(a1-3)[Gal(b1-4)]GlcNAc(b1-3)GalNAc
# Procedure, shortened: as §1
# [6] = target: Fuc(a1-3)[Gal(b1-4)]GlcNAc(b1-4)Gal(b1-4)[Fuc(a1-3)]GlcNAc
# Procedure, shortened: as §1
# [7] = target: Fuc(a1-3)[Gal(b1-4)]GlcNAc(b1-4)Gal(b1-4)[Fuc(a1-3)]GlcNAc(b1-4)Gal(b1-4)[Fuc(a1-3)]GlcNAc
# Procedure, shortened: as §1
# [8] = target: Fuc(a1-3)[Gal(b1-4)]GlcNAc(b1-6)GalNAc
# Procedure, shortened: as §1
# [9] = target: Fuc(a1-3)[Gal(b1-4)]GlcNAc(b1-6)[Gal(b1-3)GlcNAc(b1-3)]Gal(b1-4)Glc
# Procedure, shortened: as §1
# [10] = target: Fuc(a1-3)[Gal(b1-4)]GlcNAc6S
# Procedure, shortened: as §1
# [11] = target: Fuc(a1-3)[Gal3S(b1-4)]Glc
# Procedure, shortened: as §1
# [12] = target: Fuc(a1-3)[Gal3S(b1-4)]GlcNAc
# Procedure, shortened: as §1
# [13] = target: Fuc(a1-3)[Gal3S(b1-4)]GlcNAc6S
# Procedure, shortened: as §1
# [14] = target: Fuc(a1-3)[GalNAc(b1-4)]GlcNAc
# Procedure, shortened: as §1
# [15] = target: Fuc(a1-3)[GalNAc(b1-4)]GlcNAc6S
# Procedure, shortened: as §1
# Fuc(a1-4)GlcNAc = target: Fuc(a1-4)GlcNAc
# Procedure, shortened: as §1
# Fuc(b1-3)GlcNAc = target: Fuc(b1-3)GlcNAc
# Procedure, shortened: as §1
# Gal(a1-2)Gal = target: Gal(a1-2)Gal
# Procedure, shortened: as §1
# Gal(a1-3)Gal = target: Gal(a1-3)Gal
# Procedure, shortened: as §1
# Gal(a1-3)Gal(b1-3)GlcNAc = target: Gal(a1-3)Gal(b1-3)GlcNAc
# Procedure, shortened: as §1
# [16] = target: Gal(a1-3)Gal(b1-3)GlcNAc(b1-2)Man
# Procedure, shortened: as §1
# [17] = target: Gal(a1-3)Gal(b1-3)GlcNAc(b1-2)Man(a1-3)[Gal(a1-3)Gal(b1-3)GlcNAc(b1-2)Man(a1-6)]Man(b1-4)GlcNAc(b1-4)GlcNAc
# Procedure, shortened: as §1
# [18] = target: Gal(a1-3)Gal(b1-3)GlcNAc(b1-3)GalNAc
# Procedure, shortened: as §1
# [19] = target: Gal(a1-3)Gal(b1-3)GlcNAc(b1-6)GalNAc
# Procedure, shortened: as §1
# [20] = target: Gal(a1-3)Gal(b1-3)[Fuc(a1-4)]GlcNAc(b1-2)Man(a1-3)[Gal(a1-3)Gal(b1-3)[Fuc(a1-4)]GlcNAc(b1-2)Man(a1-6)]Man(b1-4)GlcNAc(b1-4)GlcNAc
# Procedure, shortened: as §1
# Gal(a1-3)Gal(b1-4)Glc = target: Gal(a1-3)Gal(b1-4)Glc
# Procedure, shortened: as §1
# Gal(a1-3)Gal(b1-4)GlcNAc = target: Gal(a1-3)Gal(b1-4)GlcNAc
# Procedure, shortened: as §1
# [21] = target: Gal(a1-3)Gal(b1-4)GlcNAc(b1-2)Man
# Procedure, shortened: as §1
# [22] = target: Gal(a1-3)Gal(b1-4)GlcNAc(b1-2)Man(a1-3)[Gal(a1-3)Gal(b1-4)GlcNAc(b1-2)Man(a1-6)]Man(b1-4)GlcNAc(b1-4)GlcNAc
# Procedure, shortened: as §1
# [23] = target: Gal(a1-3)Gal(b1-4)GlcNAc(b1-3)GalNAc
# Procedure, shortened: as §1
# [24] = target: Gal(a1-3)Gal(b1-4)GlcNAc(b1-6)GalNAc
# Procedure, shortened: as §1
# [25] = target: Gal(a1-3)Gal(b1-4)[Fuc(a1-3)]GlcNAc
# Procedure, shortened: as §1
# [26] = target: Gal(a1-3)Gal(b1-4)[Fuc(a1-3)]GlcNAc(b1-2)Man(a1-3)[Gal(a1-3)Gal(b1-4)[Fuc(a1-3)]GlcNAc(b1-2)Man(a1-6)]Man(b1-4)GlcNAc(b1-4)GlcNAc
# Procedure, shortened: as §1
# Gal(a1-3)GalNAc = target: Gal(a1-3)GalNAc
# Procedure, shortened: as §1
# [27] = target: Gal(a1-3)[Gal(a1-4)]Gal(b1-4)GlcNAc
# Procedure, shortened: as §1
# [28] = target: Gal(a1-4)Gal(b1-3)GlcNAc(b1-2)Man(a1-3)[Gal(a1-4)Gal(b1-3)GlcNAc(b1-2)Man(a1-6)]Man(b1-4)GlcNAc(b1-4)GlcNAc
# Procedure, shortened: as §1
# Gal(a1-4)Gal(b1-4)Glc = target: Gal(a1-4)Gal(b1-4)Glc
# Procedure, shortened: as §1
# Gal(a1-4)Gal(b1-4)GlcNAc = target: Gal(a1-4)Gal(b1-4)GlcNAc
# Procedure, shortened: as §1
binder,measurement,setting,value
B1,glycan array binding signal (z-score),[1],-0.291
same,glycan array binding signal (z-score),[2],-0.242
same,glycan array binding signal (z-score),[3],-0.203
same,glycan array binding signal (z-score),[4],-0.208
same,glycan array binding signal (z-score),[5],-0.224
same,glycan array binding signal (z-score),[6],-0.245
same,glycan array binding signal (z-score),[7],-0.221
same,glycan array binding signal (z-score),[8],-0.301
same,glycan array binding signal (z-score),[9],-0.241
same,glycan array binding signal (z-score),[10],-0.224
same,glycan array binding signal (z-score),[11],-0.291
same,glycan array binding signal (z-score),[12],-0.236
same,glycan array binding signal (z-score),[13],-0.221
same,glycan array binding signal (z-score),[14],-0.226
same,glycan array binding signal (z-score),[15],-0.288
same,glycan array binding signal (z-score),Fuc(a1-4)GlcNAc,-0.237
same,glycan array binding signal (z-score),Fuc(b1-3)GlcNAc,-0.217
same,glycan array binding signal (z-score),Gal(a1-2)Gal,-0.23
same,glycan array binding signal (z-score),Gal(a1-3)Gal,-0.25
same,glycan array binding signal (z-score),Gal(a1-3)Gal(b1-3)GlcNAc,-0.217
same,glycan array binding signal (z-score),[16],-0.301
same,glycan array binding signal (z-score),[17],-0.169
same,glycan array binding signal (z-score),[18],-0.162
same,glycan array binding signal (z-score),[19],-0.257
same,glycan array binding signal (z-score),[20],-0.177
same,glycan array binding signal (z-score),Gal(a1-3)Gal(b1-4)Glc,1
same,glycan array binding signal (z-score),Gal(a1-3)Gal(b1-4)GlcNAc,-0.128
same,glycan array binding signal (z-score),[21],-0.16
same,glycan array binding signal (z-score),[22],-0.281
same,glycan array binding signal (z-score),[23],-0.202
same,glycan array binding signal (z-score),[24],-0.256
same,glycan array binding signal (z-score),[25],-0.234
same,glycan array binding signal (z-score),[26],-0.199
same,glycan array binding signal (z-score),Gal(a1-3)GalNAc,-0.214
same,glycan array binding signal (z-score),[27],-0.208
same,glycan array binding signal (z-score),[28],-0.214
same,glycan array binding signal (z-score),Gal(a1-4)Gal(b1-4)Glc,-0.236
same,glycan array binding signal (z-score),Gal(a1-4)Gal(b1-4)GlcNAc,-0.203
